Measurements published in PubChem BioAssay AID504466 (National Center for Advancing Translational Sciences (NCATS), 2011).
The whole screen tested about 330,000 compounds, of which about 4,200 (1.3%) were called active. The shares of active, inactive and inconclusive entries below differ from those in the screen. Calls come from the whole dose curve; as a rule, active = well fitted activation curve with a large enough effect; inconclusive = small, poorly fitted or top-dose-only effect; inactive = no such curve, though single readings can be large or run the other way. Potencies of inconclusive entries are doubtful fits and often do not repeat.

Assay: qHTS screen for small molecules that induce genotoxicity in human embryonic kidney (HEK293T) cells expressing luciferase-tagged ELG1; note: nearly all actives have a fitted effect of over 60% in size
Details: HEK293T ELG1-luciferase reporter, luminescence, 16 h; series mostly up to 46 µM
Outline: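 After overnight (16 hr) compound treatment at 37 °C, ELG1-luciferase HEK293T cells were lysed with ONE-Glo; luminescence quantified 30 min later at room temperature.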
Potency is the fitted concentration of half-maximal effect; tags give direction and shape of the fitted curve.

SMILES | Potency
CCc1ccc(OCC(=O)O/N=C(\N)c2ccncc2)cc1 | inconclusive: 32.6 µM [activator, partial curve, poor fit]
CN=C1NN=C(c2cc(C)n(-c3ccc(Cl)cc3)c2C)CS1 | inconclusive: 7.3 µM [activator, partial curve]
C=CCn1c(C)cc(C(=O)CSc2ccc(NC(C)=O)cc2)c1C | inconclusive: 8.2 µM [activator, partial curve]
O=C(COc1cccc2cccnc12)Nc1ccccc1 | inactive
Cc1ccc(S(=O)(=O)N2CCC(=O)N(C(COCc3ccc(C(F)(F)F)cc3)Cc3ccccc3)CC2)cc1 (stereo not drawn) | inactive
NC(=O)c1ccc(-n2nnnc2SCC(=O)Nc2ccc(F)cc2)cc1 | inactive
CC(/C=N/NC(=O)c1ccc(Br)cc1)=C\c1ccccc1 | inconclusive: 32.6 µM [activator, partial curve, poor fit]
Fc1cccc2sc(N3CCCCC3)nc12 | active: 13 µM
CCOc1ccccc1NC(=O)C1C2CCC(O2)C1C(=O)O (stereo not drawn) | inconclusive: 16.4 µM [activator, partial curve, poor fit]
Clc1cccc(Cl)c1Cn1ccc(C2CC2)n1 | inconclusive: 16.4 µM [activator, partial curve]
O=C(NCc1ccccc1)c1cnc(Cl)c(Cl)c1 | inactive
CC[n+]1c(/C=C/c2ccc(OC)c(OC)c2)ccc2ccccc21 | active: 10.3 µM
CCC(C)C(NC(=O)CCC(=O)OCC(=O)[C@@]1(O)CCC2[C@@H]3CCC4=CC(=O)C=C[C@]4(C)C3[C@@H](O)C[C@@]21C)C(=O)O (stereo partly drawn) | inactive
Cc1ccc(C(=O)Nc2nc(=O)n(C)s2)cc1 | inconclusive: 8.2 µM [activator, partial curve]
Nc1nc(=S)c2ncn([C@@H]3O[C@H](CO)[C@@H](O)[C@H]3O)c2[nH]1 | inactive
COC(=O)Nc1nc2c(s1)CCCC2 | inconclusive: 29.1 µM [activator, single point]
Cc1cc(C)cc(NC(=O)CCn2ccnc2)c1 | inactive
COc1cc2c(cc1OC)C(c1ccc(C)o1)CC(=O)N2 (stereo not drawn) | inconclusive: 23.1 µM [activator, partial curve, poor fit]
Cc1ccc(Nc2nc(N)nc(CSCCO)n2)cc1 | inconclusive: 9.2 µM [activator, partial curve, poor fit]
CN1CCc2c(sc(NC(=O)C3COc4ccccc4O3)c2C(N)=O)C1 (stereo not drawn) | active: 23.1 µM
COc1cccc(NC(=O)c2ccc3nc(C)sc3c2)c1 | active: 23.1 µM
NC(=NC1CCCCC1)NS(=O)(=O)c1ccccc1 | inactive
OCC1CCCN(C(=S)NCCc2ccccc2)C1 (stereo not drawn) | inconclusive: 16.4 µM [activator, partial curve, poor fit]
COc1ccc(OC)c(Nc2nc(-c3c(C)nc4ncccn34)cs2)c1 | inconclusive: 5.8 µM [activator, partial curve]

SMILES | Potency
COc1ccc(/C=C2/SC(=O)N(CCNC(=O)C3COc4ccccc4O3)C2=O)cc1 (stereo not drawn) | inactive
Cc1ccsc1/C=N\NC(=O)c1cc(C(C)(C)C)[nH]n1 | inconclusive: 23.1 µM [activator, single point]
COc1cccc(C(=O)OCC(=O)NCCC2=CCCCC2)c1 | inactive
COc1ccc(C2=NN(c3ccc(C(=O)O)cc3)C(c3ccc(OC)c(OC)c3)C2)cc1 (stereo not drawn) | active: 23.1 µM
O=C1CCc2cc(NS(=O)(=O)c3ccccc3)cc3c2N1CC3 | active: 4.11 µM
CCN(CCCNC(=O)CCc1nc(-c2ccc(OC)cc2)no1)c1cccc(C)c1 | inactive
O=[N+]([O-])c1cc(C(F)(F)F)ccc1NCCOc1ccccc1 | inconclusive: 11.6 µM [activator, partial curve, poor fit]
COc1ccc(Cl)cc1NC(=O)c1cnc2sccn2c1=O | inconclusive: 11.6 µM [activator, partial curve]
CCC(C)NC(=S)N(Cc1cc2cc(C)ccc2n2nnnc12)CC(C)(C)NC(C)C (stereo not drawn) | inactive
Cc1cc(C(=O)OCC(=O)N2CCc3ccccc32)c(C)o1 | inconclusive: 18.4 µM [activator, partial curve]
CN(C)c1ccc(/C=C(\C#N)C(=O)NCc2ccco2)cc1 | inconclusive: 29.1 µM [activator, single point]
N#Cc1cnc(SCCc2ccccc2)nc1N | inconclusive: 12.6 µM [activator, partial curve]
Cc1cc(O)c(C(=O)/C=C/c2ccc(C(C)C)cc2)c(=O)o1 | inconclusive: 23.1 µM [activator, single point]
Cc1nn(-c2ccc(F)cc2)c2sc(C(=O)N3CCCCCC3)cc12 | inconclusive: 10.3 µM [activator, partial curve, poor fit]
CC(=O)OCC(=O)Nc1ccc(N=Nc2ccccc2)cc1 | active: 23.1 µM
COc1ccc(OC)c(NC(=O)CSc2ccc(-c3ccco3)nn2)c1 | inactive
CCCc1cc(=O)n2c(nc3ccccc32)[nH]1 | inconclusive: 11.2 µM [activator, partial curve, poor fit]
COc1ccc2c3c(cccc13)C(=O)N(O)C2=O | inconclusive: 25.9 µM [activator, partial curve, poor fit]
CCOCCCNC(=O)c1c[nH]c2ccc(S(=O)(=O)Nc3cccc(OC)c3)cc2c1=O | inactive
O=C(Nc1nnc(C2CC2)s1)c1cncc(Br)c1 | inconclusive: 20.6 µM [activator, partial curve, poor fit]
O=C(NCC(=O)N1CCCCCCC1)c1ccco1 | inconclusive: 25.9 µM [activator, partial curve, poor fit]
COc1ccc(OCC(=O)NC(=S)N2CCCc3ccccc32)cc1 | active: 10 µM
Cc1cnc(NC(=O)c2ccc3ncsc3c2)s1 | inconclusive: 2.06 µM [activator, full curve]
CC(=O)NCCc1nc2cc(NC(=O)Nc3ccccc3)ccc2n1C | inconclusive: 20.6 µM [activator, single point]
